From article PMC4336329 (PLoS ONE, 2015)
About 2,200 (0.71%) of roughly 310,000 compounds showed an effect of 50% or more. Effects have a minus sign here. The list shows a part of the results.

Target: human ether-à-go-go-related gene (hERG) potassium channel (human, UniProt Q12809)
Assay: primary screen, population patch clamp on CHO cells stably expressing hERG

Chain of human ether-à-go-go-related gene (hERG) potassium channel (Q12809 whole entry, looked up): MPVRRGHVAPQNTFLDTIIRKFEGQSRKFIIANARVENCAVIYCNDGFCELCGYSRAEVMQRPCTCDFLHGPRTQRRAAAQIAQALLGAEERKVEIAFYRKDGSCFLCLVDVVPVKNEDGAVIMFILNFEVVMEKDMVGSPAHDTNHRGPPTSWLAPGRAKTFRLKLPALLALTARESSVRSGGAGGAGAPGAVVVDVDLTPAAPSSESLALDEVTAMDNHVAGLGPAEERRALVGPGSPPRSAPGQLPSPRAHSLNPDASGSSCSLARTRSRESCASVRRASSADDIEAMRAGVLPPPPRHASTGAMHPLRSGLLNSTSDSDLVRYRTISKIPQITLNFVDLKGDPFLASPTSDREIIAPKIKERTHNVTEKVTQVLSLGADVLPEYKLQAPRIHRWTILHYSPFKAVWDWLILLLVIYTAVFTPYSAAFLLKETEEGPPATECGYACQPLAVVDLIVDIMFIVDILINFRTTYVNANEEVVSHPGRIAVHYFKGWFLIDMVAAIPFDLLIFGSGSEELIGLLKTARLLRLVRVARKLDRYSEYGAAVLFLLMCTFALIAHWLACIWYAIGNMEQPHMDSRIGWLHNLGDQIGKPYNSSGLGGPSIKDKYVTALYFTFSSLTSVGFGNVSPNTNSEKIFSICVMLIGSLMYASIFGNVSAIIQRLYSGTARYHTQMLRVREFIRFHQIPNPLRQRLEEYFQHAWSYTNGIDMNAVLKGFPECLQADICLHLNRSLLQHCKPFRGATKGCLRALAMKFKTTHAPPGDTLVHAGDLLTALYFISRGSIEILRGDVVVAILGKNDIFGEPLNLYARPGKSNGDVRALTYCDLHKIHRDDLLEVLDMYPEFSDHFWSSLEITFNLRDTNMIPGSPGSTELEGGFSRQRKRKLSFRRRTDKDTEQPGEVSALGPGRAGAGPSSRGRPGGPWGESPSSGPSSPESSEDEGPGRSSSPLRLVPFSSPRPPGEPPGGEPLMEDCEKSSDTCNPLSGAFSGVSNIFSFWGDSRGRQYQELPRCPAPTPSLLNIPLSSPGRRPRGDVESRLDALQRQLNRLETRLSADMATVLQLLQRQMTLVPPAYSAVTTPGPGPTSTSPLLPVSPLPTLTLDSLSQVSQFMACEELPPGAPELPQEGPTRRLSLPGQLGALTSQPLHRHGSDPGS

SMILES | hERG current change (%, negative = inhibition) at 1uM [%]
COc1ccc(C(=O)NCc2ccc(N3CCN(C(=O)OC(C)(C)C)CC3)cc2)cc1 | -5.88
Cc1ccc(NC(=O)CSc2nnc(CN3CCOCC3)n2C)cc1C | 14.1
COc1nn(C(C)C(=O)N2N=C(C(F)F)CC2(O)C(F)F)cc1[N+](=O)[O-] (stereo not shown) | 4.03
COc1ccc(NC(=O)NC23CC4(C)CC(C)(CC(C)(C4)C2)C3)cc1 | -8.8
CC1=C(C(=O)N(C)Cc2ccccc2)C2(CCC(C)CC2)OC1=O (stereo not shown) | 2.6
Cc1cc(NO)c(C(C)C)cc1N=O | 1.6
COCCn1c(SCC(=O)Nc2ccc(C(C)=O)cc2)nnc1-c1ccco1 | 1.12
COc1ccc(Cc2nnc(NC(C)=O)s2)cc1 | 8.54
COc1ccc(NC(=O)c2cc3c(=O)n(C)c4ccccc4c3n2C)cc1Cl | 14.4
CC(C)(C)OC(=O)CC[C@@H](C(=O)N1CCN(C(=O)OC(C)(C)C)CC1)n1cc(C(Cc2ccc(O)cc2)NC(=O)OC(C)(C)C)nn1 (stereo partly shown) | 14.1
COc1cccc2c1cc1c(=O)n(CC(=O)NC3CCCCC3)nc(C)n12 | 16
COc1ccccc1NC(=O)C(C)OC(=O)Cn1cnc2c1c(=O)n(C)c(=O)n2C (stereo not shown) | 9.52
CCCCC[C@H](O)/C=C/C1=C(CCCCCCC(=O)O)C(=O)CC1 | 12.7
CC(=O)NCc1ccc(S(=O)(=O)N2CCCN(C)CC2)cc1.Cl | 14.1
CC1SCC(=NOCc2ccccc2)CS1 (stereo not shown) | 7.37
NC(=O)C1CCN(S(=O)(=O)c2cc3c4c(c2)CCN4C(=O)CC3)CC1 | 8.51
COc1ccc(O)c(CN2CCCC(N3CCc4ccccc4C3)C2)c1 (stereo not shown) | -1.28
COCCC1CCCCN1C(=O)c1cc(COc2cccc(C(C)=O)c2)on1 (stereo not shown) | 8.15
CC1CN(C(=S)Nc2ccccc2)N(c2ccccc2)C1 (stereo not shown) | 9.48
CCOC(=O)c1nc(NNC(C)=O)sc1C | 6.85
CCOC(=O)CCC(=O)Nc1cccc([N+](=O)[O-])c1 | 12.9
C/C(=N\Nc1ccc([N+](=O)[O-])cc1)c1cccc(N)c1 | -1.76
O=C(CCc1cn2ccccc2n1)NC1CCCc2c1cnn2-c1ccccc1F (stereo not shown) | 11.8
CCc1ccc(OCC(=O)NC(=S)Nc2ccc(C)cc2C)c(Br)c1 | 10.5
CC(C)n1nc(C(=O)OCC(=O)N(C)C2CCS(=O)(=O)C2)c2ccccc2c1=O (stereo not shown) | 8.79
